Source: PubChem BioAssay (NCI)
“And” between values parts separate entries of the source, which are not always exact repeats. Identical values can stand only once.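 Growth conditions: 96-well plates. Treatment: test compound, 48 hours, 5 concentrations. Analysis: linear interpolation between bracketing concentrations; unreached endpoints set to highest concentration. Abbreviation: GI50, concentration required for 50% inhibition of growth. Definition used: TGI = concentration required for complete inhibition of growth.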

These molecules were tested on NCI-H322M lung (assay: inhibition of tumour cell growth, NCI panel, 48 h).
`Cc1ccc(C(=O)CN(/C=C/C(=O)C(F)(F)F)c2ccc(S(N)(=O)=O)cc2)cc1` was tested, and the GI50 was 87.5 µM and the TGI was over 100 µM. `NC(Cc1ccccc1)C(=O)N[C@H]1c2ccsc2/C(=N/O)[C@H]1O` (stereo not given in full) showed a TGI of over 100 µM. Work on `C=C1C(=O)O[C@H]2[C@H]1CC/C(COC(=O)C(=O)c1cn(Cc3ccccc3)c3ccccc13)=C\CC[C@@]1(C)O[C@@H]21` yielded a GI50 of 7.4 µM and a TGI of 20.6 µM. `CCOCc1nc2c(OC)cc(-c3nc4ccc(N5CCN(C)CC5)cc4[nH]3)c(OC)c2[nH]1` showed a TGI of over 100 µM. For `C(=Nc1ccc(-c2nc3ccccc3[nH]2)cc1)c1cccs1`, the TGI was over 100 µM. Molecule `O=C(N/N=C/c1ccc(Cl)cc1)c1ccc(C(F)(F)F)nc1Nc1cccc(C(F)(F)F)c1` has a GI50 of 1.3 µM and a TGI of 16 µM. `O=P(Nc1ccc(Cl)cc1)(Oc1ccccc1)N(CCCl)CCCl` (stereo not given) gave a TGI of over 100 µM. `Oc1ccccc1C(Sc1nc2ccccc2s1)Sc1nc2ccccc2s1` showed a TGI of over 100 µM. `O=C1CC(=Nc2ccc(Cl)cc2)C(c2ccccc2)N1c1ccccc1` (stereo not given) showed a TGI of over 100 µM. In the case of `CCOC(=O)C(=Cc1[nH]c2ccccc2c1-c1c[nH]c2ccccc12)C(=O)OCC`, the TGI is reported as 30.8 µM. With `COc1cc(C(=O)N(Cc2cccnc2)C(=S)N(Cc2cccnc2)C(=O)c2cc(OC)c(OC)c(OC)c2)cc(OC)c1OC` the TGI was over 100 µM. `COc1cc(-c2ccc3c(c2)NC(=O)/C3=C\c2ccc[nH]2)ccc1O` showed a GI50 of 0.179 µM and a TGI of over 50 µM. `CC(=O)OC(/C=C/c1ccccc1)=C(OC(C)C)/C1=C(\c2ccccc2)SCCCSC1=O` gave a TGI of over 100 µM. For `Cc1nc(N)sc1C(=O)/C=C\c1ccc2c(c1)OCO2`, the TGI was over 100 µM. `Cc1ccc(-c2c(C#N)c(-c3ccc(Cl)cc3)c(C#N)c(=O)n2NS(=O)(=O)c2ccc(C)cc2)cc1` showed a TGI of over 100 µM. With `Nc1nc(N)c2ncn(-c3ccc(Cl)cc3)c2n1` the TGI was over 100 µM. `N#C/C(=C1C=C(Br)/C(=N\O)C=C\1Cl)c1cccc2ccccc12` was tested, and the TGI was 16.6 µM. Molecule `NS(=O)(=O)c1ccc(NC2(C(=O)O)CCCC2)cc1` has a TGI of over 100 µM. With `COc1cc2c(c(OC)c1OC)-c1ccc(OC)c(=O)cc1[C@@H](NC(=O)c1ccccc1)CC2` the GI50 was over 30 µM and the TGI was > 30 µM and 14.8 µM. Molecule `O=Cc1ccc2c(c1)CC1(Cc3ccccc3C1)C2` has a TGI of over 100 µM. Molecule `CN1CCC(O)(C(C)(C)C)CC1` has a TGI of over 100 µM. Work on `CCCCN1C(=O)N(c2ccc(OCC)cc2)C2N(CCCC)C1C(C)(C)C2(C)C` (stereo not given) yielded a TGI of over 100 µM. Molecule `COC(CNC(=O)C(C)NC(=O)CCc1ccccc1)OC` (stereo not given) has a TGI of over 100 µM. `COc1cc2c(cc1OC)C(CC(=O)NN=C(C)C)NCC2` (stereo not given) showed a TGI of over 100 µM. Work on `N=C(N)c1ccc(C(NC(=O)CNS(=O)(=O)c2ccc3ccccc3c2)P(=O)(Oc2ccccc2)Oc2ccccc2)cc1` (stereo not given) yielded a TGI of over 100 µM. `O=C1/C(=N/O)Cc2c(Br)ccc(Br)c21` gave a TGI of over 100 µM. Molecule `COC(=O)[C@@H](C)CNS(=O)(=O)N(c1cc(C(F)(F)F)cc(C(F)(F)F)c1)C1CCN(Cc2ccc(F)cc2)CC1` has a GI50 of 13.9 µM and a TGI of 29.4 µM. For `Clc1nc(Cl)c(Cl)c(-c2ccccc2)n1`, the TGI was 33.7 µM. For `COC[C@@H](C[C@H]1O[C@@](O)([C@H](O)[C@@H]2C[C@H](OC)[C@@H](O)CC/C=C(C)/C=C/[C@@H](O[C@@H]3O[C@@H](C)[C@H](OC)[C@@H](O)[C@@H]3O)[C@H](C)/C=C(C)/C=C(C)/C=C(\C)C(=O)O2)[C@H](C)[C@@H](O)[C@H]1C)O[C@H]1C[C@](C)(O)[C@@H](O[C@H]2C[C@@H](OC)[C@H](O)[C@@H](C)O2)C(C)O1` (stereo not given in full), the TGI was over 100 µM. `COc1cc(/C=C2/C[C@H]3[C@@H]4CC=C5C[C@@H](O)CC[C@]5(C)[C@H]4CC[C@]3(C)NC2=O)cc(OC)c1OC` gave a TGI of over 62.9 µM. With `CCOC(=O)CNc1c(OCc2ccccc2)c(=O)c1=O` the TGI was over 100 µM. Molecule `Cn1c2c(c3ccccc31)CC1c3c(c4ccccc4n3C)CC21` (stereo not given) has a TGI of over 100 µM. In the case of `N#CC(NNC(=O)Cc1ccccc1)c1c(O)ccc2ccccc12` (stereo not given), the TGI is reported as 82.5 µM. With `Oc1c(CN2CCOCC2)ccc2cccnc12` the TGI was over 10 µM. `CC1NC(=O)CC(c2ccccc2)N(N=O)C1c1ccccc1` (stereo not given) gave a TGI of over 100 µM. With `c1cc(CNC23CC4CC(CC(C4)C2)C3)cc(C[N+](Cc2cccc(CNC34CC5CC(CC(C5)C3)C4)c2)(Cc2cccc(CNC34CC5CC(CC(C5)C3)C4)c2)Cc2cccc(CNC34CC5CC(CC(C5)C3)C4)c2)c1` (stereo not given) the GI50 was 5.25 µM and the TGI was 21.3 µM. `COc1cccc2c1C(=O)c1c(O)c3c(c(O)c1C2=O)C[C@@](O)(C(C)=O)C[C@@H]3OC1OC(C)C(O)C(N)C1Br` (stereo not given in full) gave a TGI of 1.25 µM. For `COc1cc2nc3cc([N+](=O)[O-])ccc3c(NCCCNCCO)c2cc1OC`, the GI50 was 0.171 µM and the TGI was 0.571 µM. For `CCOP(C)(=O)C(N)Cc1ccc(OC)c(OC)c1` (stereo not given), the TGI was over 100 µM. For `N#CCN1C(=O)c2cccc3cc([N+](=O)[O-])cc(c23)C1=O`, the TGI was over 100 µM. With `O=C(O)C1OC(n2cc(F)c(=O)[nH]c2=O)CC1O` (stereo not given) the TGI was over 100 µM. `Cc1ccc2c(c1)C(C(=O)N[C@@H]1C(=O)N3[C@@H]1SC(C)(C)[C@@H]3C(=O)O)OCCC2` (stereo not given in full) gave a TGI of over 100 µM. Work on `COc1cc(/C=C2\C(=O)N(c3ccccc3)C(c3ccccc3)S2(=O)=O)cc(OC)c1OC` (stereo not given) yielded a TGI of over 100 µM. In the case of `CC(=O)CSCc1ccccn1`, the TGI is reported as over 100 µM. Molecule `CC(C)(C)c1cc(Br)c(O)c(CN(Cc2cc(C(C)(C)C)cc(Br)c2O)C2CCCCC2)c1` has a TGI of 31.2 µM. For `CCCN1CCC(=O)N(CCC(F)(F)C(F)(F)C(F)(F)C(F)(F)C(F)(F)C(F)(F)F)C1=S`, the TGI was over 100 µM. `NCCCCN(CCCN)/[N+]([O-])=N\O` was tested, and the TGI was over 100 µM. `O=C1C=CC[C@H]2O[C@@H](COC(=O)Cc3ccccc3)C[C@H]2O1` was tested, and the TGI was over 100 µM. `CON(C)C(=O)CNC(=O)OCC1c2ccccc2-c2ccccc21` showed a TGI of over 100 µM. `COc1cc(CNCc2cc(OC)c(OC)c(OC)c2)cc(OC)c1OC` showed a TGI of over 10 µM. `Cn1cc(NC(=O)c2cc(NC(=O)CN=C(N)N)cn2C)cc1C(=O)NCCC(=N)N` showed a TGI of over 100 µM. Molecule `O=C(NNC(=S)Nc1cccc(Cl)c1)c1cc(-c2ccccc2)nc2ccccc12` has a TGI of 28.3 µM. Work on `CC1CC[C@]2(C(=O)O)CCC3(C)C(=CC(=O)C4[C@@]5(C)CCC(=O)C(C)(C)C5CC[C@]43C)[C@@H]2[C@H]1C` (stereo not given in full) yielded a TGI of over 100 µM. Work on `COc1ccc2ccccc2c1/C=C/C(=O)c1ccccc1` yielded a TGI of 12.8 µM. For `CCOc1cn(C2CC(O)C(CO)O2)c(=O)[nH]c1=O` (stereo not given), the TGI was over 100 µM. `COc1cc(C(C)O)c[n+](CCc2c[nH]c3ccccc23)c1` (stereo not given) gave a TGI of over 100 µM. With `CSc1ncnc2c1ncn2C1CC(Oc2ccc(C)cc2)C(COc2ccc(C)cc2)O1` (stereo not given) the TGI was over 100 µM. In the case of `COc1ccc(C(=C(Cl)c2ccccc2)c2ccc(OC)cc2)cc1`, the TGI is reported as over 100 µM. `COC(=O)C1=CNC=C(C(=O)OC)C1C1=CC(=O)C(C)=CC1=O` showed a GI50 of 55.4 µM and a TGI of over 100 µM. Molecule `O=C1OC(c2ccccc2)=N/C1=C\c1cccc2ccccc12` has a TGI of over 100 µM. For `C=CC(CCc1ccc(C(=O)OCC)cc1)c1c(N)nc(N)[nH]c1=O` (stereo not given), the TGI was over 100 µM. `O=C(NI1OC(=O)c2ccccc21)c1ccc(Cl)cc1` was tested, and the TGI was over 100 µM. Molecule `Nc1cc2[nH]c(=O)c(=O)[nH]c2cc1N` has a TGI of over 100 µM. Molecule `CCOC(=O)[C@@H](N)CCC(=O)N[C@@H](CSCc1ccccc1)C(=O)N[C@@H](C(=O)OCC)c1ccccc1` has a GI50 of 29.6 µM and a TGI of over 62.6 µM. In the case of `CC(C)=CCC/C(C)=C/C=C/C(C)=C/C=C/C(C)=C/C=C/C=C(C)/C=C/C=C(C)/C=C/[C@H]1C(C(C)(C)O)CC[C@]1(C)O` (stereo not given in full), the TGI is reported as over 100 µM. `COc1ccc(Nc2c3ccccc3nc3occc23)cc1` was tested, and the GI50 was 4.69 µM and the TGI was 20.4 µM. `CC(=O)OCC12C(=O)C[C@@H](C)C3(CC(c4ccoc4)OC3=O)C1CCC(OC(C)=O)C21CO1` (stereo not given in full) showed a TGI of over 100 µM. `O=C1C=C(C2=CC(=O)C(=O)c3ccccc32)c2ccccc2C1=O` showed a TGI of over 100 µM. For `NN/C(=N\S(=O)(=O)c1cc2ccccc2s1)Nc1ccc(Cl)cc1`, the TGI was 46.6 µM. `COc1ccccc1CNCCCN1C(=O)c2ccc3c4c(ccc(c24)C1=O)C(=O)N(CCCOCCCCOCCCN)C3=O` was tested, and the GI50 was 1.89 µM and the TGI was 4.68 µM. Molecule `COc1cc(Cn2c3c(c4cc(O)ccc42)Cc2ccccc2C3=O)cc(OC)c1` has a TGI of over 100 µM. For `O=C1OC(C(O)CO)C(=O)C1=O` (stereo not given), the GI50 was 2110 µM and the TGI was 7200 µM. `Cc1cccc(NC(=O)C(=O)C(C(=O)c2ccc3ccccc3c2)C2OC(=O)c3ccccc32)c1C` (stereo not given) was tested, and the TGI was 41.3 µM. In the case of `O=C(Cc1ccccc1)NN1C(=O)C(Cl)C1c1cc(Br)ccc1O` (stereo not given), the TGI is reported as over 100 µM. For `CS/C(N)=N\NC(=O)CCC(=O)Nc1ccccc1C(F)(F)F`, the TGI was over 100 µM. With `Nn1c(=O)n(Cc2ccccc2)n(-c2ccccc2)c1=O` the TGI was over 100 µM. With `CCOC(=O)c1nc2ccc(C(F)(F)F)cc2nc1NCc1cc(OC)c(OC)c(OC)c1` the TGI was over 100 µM. With `O=C1CCN2C(=O)CCN12` the TGI was over 100 µM. `CCOC(=O)CC1(C(=O)OCC)c2[nH]c3ccccc3c2CCN1Cc1ccccc1` (stereo not given) gave a TGI of over 100 µM. Work on `COc1nc2ccccc2cc1-c1nc2c(cnn2-c2ccc(Br)cc2)c(=O)[nH]1` yielded a GI50 of 0.957 µM and a TGI of over 50 µM. `C[C@]12CCC(=O)O[C@H]1CCCCO2` showed a TGI of over 100 µM.
